This is one part of the list. Sequences were assembled here from the parent chain. Values near 0.05 are background.
B1: TEV protease; numbered along this chain (parent)
chain: MGESLFKGPRDYNPISSSICHLTNESDGHTTSLYGIGFGPFIITNKHLFRRNNGTLVVQSLHGVFKVKDTTTLQQHLVDGRDMIIIRMPKDFPPFPQKLKFREPQREERICLVTTNFQTKSMSSMVSDTSCTFPSGDGIFWKHWIQTKDGQCGSPLVSTRDGFIVGIHSASNFTNTNNYFTSVPKNFMELLTNQEAQQWVSGWRLNADSVLWGGHKVFMVKPEEPFQPVKEATQL

Variants of: B1
Assay: raw area under fraction-flipped curve 0-4 h after induction (AUC4h, not background-subtracted), DNA-recorder readout of cleavage of the substrate (dimensionless); higher = more cleavage of the substrate by the protease variant
Settings: temperature: 34 °C; time window: 0-4 h after rhamnose induction
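Further: Bxb1 expression induced with 0.2% (w/v) L-rhamnose at OD600 near 0.5, cultures sampled hourly, flipped fraction per protease–substrate barcode pair counted by paired-end Illumina sequencing.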

Row | Variant | area with substrate CNLYFQS | area with substrate GNLYFQS | area with substrate INLYFQS | area with substrate KNLYFQS | area with substrate LNLYFQS | area with substrate MNLYFQS | area with substrate SNLYFQS | area with substrate HNLYFQS | area with substrate QNLYFQS | area with substrate WNLYFQS
1 | Q197M | 0.0738 | 0.0573 | 0.0638 | 0.0645 | 0.0773 | 0.0624 | 0.0661 | – | – | –
2 | Q197T | 0.0671 | – | 0.0584 | – | – | – | – | 0.0532 | 0.0831 | 0.0654
3 | Q198H | 0.0711 | – | – | 0.0803 | – | – | – | 0.0682 | – | 0.0824
4 | Q198M | 0.0852 | – | 0.0601 | 0.06 | 0.0496 | 0.0587 | 0.0612 | 0.0512 | – | –
5 | G202D | 0.071 | 0.072 | 0.0537 | – | – | 0.0559 | – | – | – | 0.0545
6 | G202P | 0.0539 | 0.0514 | 0.0667 | 0.0889 | – | 0.0542 | 0.0593 | 0.0443 | – | 0.0595
7 | G202T | 0.0345 | 0.0521 | – | – | – | – | 0.0484 | – | – | –
8 | W203I | 0.0525 | 0.064 | 0.0463 | 0.06 | 0.0557 | – | 0.0552 | 0.0593 | – | 0.0755
9 | W203M | 0.0493 | 0.0795 | 0.0541 | – | – | – | 0.0485 | 0.0593 | – | 0.0548
10 | R204S | 0.0766 | – | – | 0.0728 | 0.0799 | 0.0764 | 0.0727 | 0.0544 | – | 0.0657
11 | L205I | 0.0871 | – | – | – | – | – | – | 0.0683 | – | –
12 | L205K | 0.0779 | 0.0629 | – | – | 0.0613 | 0.0807 | 0.0747 | 0.0701 | – | –
13 | L205T | 0.0317 | – | – | – | – | 0.0614 | – | – | – | –
14 | N206Y | 0.0778 | – | – | 0.0664 | – | – | 0.0372 | 0.0546 | – | 0.0619
15 | A207G | 0.102 | 0.0823 | – | 0.0595 | 0.0649 | – | – | 0.0617 | 0.0755 | 0.0679
16 | A207H | 0.0733 | – | – | 0.0589 | 0.0721 | 0.0501 | 0.0673 | 0.0642 | – | –
17 | A207Q | 0.0827 | – | – | – | – | – | – | – | – | –
18 | A207W | 0.0642 | 0.071 | – | – | – | 0.0786 | – | 0.047 | – | –
19 | D208P | 0.0593 | 0.0713 | 0.0544 | – | 0.0677 | – | 0.0694 | – | 0.0599 | 0.0684
20 | V210H | 0.0623 | – | 0.0591 | – | 0.0584 | – | – | 0.0592 | 0.05 | –

Row | Variant | area with substrate CNLYFQS | area with substrate GNLYFQS | area with substrate INLYFQS | area with substrate KNLYFQS | area with substrate LNLYFQS | area with substrate MNLYFQS | area with substrate SNLYFQS | area with substrate HNLYFQS | area with substrate QNLYFQS | area with substrate WNLYFQS
21 | V210R | 0.0552 | 0.0633 | 0.0611 | 0.0515 | – | 0.0385 | – | 0.0516 | – | 0.0464
22 | L211A | 0.0078 | 0.0635 | – | – | – | 0.0323 | – | 0.0765 | – | 0.0593
23 | L211R | 0.0566 | – | 0.0746 | 0.0721 | 0.0192 | – | – | – | – | –
24 | L211W | 0.0752 | – | – | 0.061 | – | – | 0.0743 | 0.0662 | – | 0.0586
25 | L211Y | 0.0701 | 0.0829 | 0.0539 | – | 0.0485 | 0.0741 | – | – | – | 0.0649
26 | W212C | 0.0512 | – | – | 0.085 | 0.0337 | – | 0.0949 | – | – | 0.0294
27 | W212L | 0.077 | – | – | 0.0694 | – | 0.0677 | 0.0611 | 0.0719 | – | 0.0498
28 | W212P | 0.0421 | 0.048 | – | 0.0543 | – | – | 0.0563 | – | – | 0.0556
29 | W212R | 0.0588 | 0.0478 | – | – | 0.0613 | – | – | 0.0542 | – | 0.056
30 | G213V | 0.0175 | – | – | – | – | – | 0.0654 | 0.0588 | – | –
31 | G214P | 0.0531 | 0.0549 | 0.0537 | – | 0.0684 | – | 0.0523 | 0.0479 | – | 0.0567
32 | G214R | 0.0719 | – | – | 0.0628 | 0.0437 | 0.0632 | – | – | – | –
33 | H215P | 0.0842 | 0.0668 | 0.0586 | – | 0.055 | 0.056 | – | 0.0558 | 0.077 | 0.055
34 | V217F | 0.101 | 0.0489 | 0.0406 | – | 0.082 | – | 0.0726 | – | – | 0.0549
35 | V217I | 0.0768 | 0.0742 | – | – | 0.0523 | – | 0.0815 | 0.0805 | 0.0781 | –
36 | V217K | 0.0516 | – | – | 0.0756 | – | 0.0596 | – | 0.0621 | – | –
37 | V217S | 0.0591 | 0.0516 | 0.0644 | 0.0681 | 0.0511 | 0.0617 | – | 0.0818 | 0.0463 | 0.0612
38 | V217T | 0.0623 | 0.0508 | 0.0539 | 0.059 | – | 0.0459 | 0.0665 | 0.0487 | – | 0.0644
39 | V217Y | 0.0624 | – | 0.0632 | – | 0.0589 | 0.0464 | – | 0.0722 | – | –
40 | F218M | 0.0706 | 0.0694 | – | – | – | 0.0572 | – | – | – | 0.0665

Same assay, conditions: temperature: 34 °C; time window: 0-4 h after rhamnose induction

Row | Variant | area with substrate NNLYFQS | area with substrate YNLYFQS | area with substrate FNLYFQS | area with substrate PNLYFQS | area with substrate TNLYFQS | area with substrate RNLYFQS | area with substrate VNLYFQS
41 | Q198H | 0.0636 | 0.0706 | – | – | – | – | –
42 | Q198M | 0.0497 | 0.0604 | 0.059 | 0.0686 | 0.0695 | – | –
43 | G202D | – | 0.0542 | 0.079 | – | – | – | –
44 | G202P | 0.0473 | 0.0588 | 0.0475 | – | – | 0.0694 | –
45 | G202T | – | 0.0644 | – | 0.0714 | 0.0665 | – | –
46 | W203I | 0.0625 | – | – | 0.0485 | – | – | 0.0687
47 | R204S | 0.0728 | – | 0.058 | 0.0643 | 0.0623 | 0.0657 | 0.0834
48 | L205I | – | – | 0.0511 | – | – | – | –
49 | L205K | – | 0.067 | – | – | – | – | –
50 | L205T | – | – | – | – | – | – | 0.0421
51 | N206Y | – | – | 0.0686 | – | 0.0762 | 0.0725 | –
52 | A207G | 0.0665 | 0.0643 | – | 0.0493 | 0.0607 | – | –
53 | A207H | – | 0.0569 | 0.063 | 0.0407 | 0.0775 | – | 0.0628
54 | A207Q | – | 0.0793 | 0.0731 | – | – | – | 0.0736
55 | A207W | 0.0668 | – | – | 0.0723 | – | – | –
56 | D208P | 0.0588 | 0.0502 | – | 0.0642 | 0.0576 | – | –
57 | V210H | 0.0542 | 0.0462 | – | 0.0576 | 0.0574 | – | –
58 | V210R | 0.0508 | 0.0591 | 0.061 | 0.0308 | 0.0618 | – | –
59 | L211A | – | – | 0.0629 | – | 0.0609 | – | 0.0762

Row | Variant | area with substrate NNLYFQS | area with substrate YNLYFQS | area with substrate FNLYFQS | area with substrate PNLYFQS | area with substrate TNLYFQS | area with substrate RNLYFQS | area with substrate VNLYFQS
60 | L211R | – | – | – | – | 0.0437 | – | –
61 | L211W | – | 0.111 | 0.0684 | 0.065 | – | – | –
62 | L211Y | – | – | – | 0.0631 | – | – | 0.0566
63 | W212C | – | – | – | 0.0714 | 0.0578 | – | –
64 | W212L | 0.007 | 0.0622 | – | 0.0687 | – | 0.042 | –
65 | W212P | – | – | 0.0641 | – | – | – | –
66 | W212R | – | – | 0.0484 | – | 0.0687 | – | –
67 | G213V | 0.06 | – | – | – | 0.0588 | – | –
68 | G214P | – | 0.0317 | – | 0.0648 | 0.0558 | – | –
69 | G214R | – | – | 0.0379 | – | – | – | –
70 | H215P | – | 0.0567 | – | 0.0537 | 0.0603 | – | –
71 | V217F | – | 0.0575 | – | – | 0.0577 | – | –
72 | V217I | 0.0581 | – | 0.0461 | 0.067 | 0.0694 | – | –
73 | V217K | 0.0664 | 0.058 | 0.0591 | 0.0448 | 0.0704 | – | 0.0612
74 | V217S | – | – | – | 0.0689 | – | 0.0617 | 0.0589
75 | V217T | 0.0613 | – | – | 0.0588 | 0.0579 | – | –
76 | V217Y | 0.0725 | 0.0568 | – | 0.0594 | 0.0568 | – | –
77 | F218M | – | – | – | – | 0.0617 | – | –
